# Laboratory results taken from PubChem BioAssay AID588855 (National Center for Advancing Translational Sciences (NCATS), 2011).
# Hit rate of the full screen: of about 410,000 compounds, about 5,000 (1.2%) were called active. This list was built around the results that the source calls inconclusive (neither active nor inactive); the mix of calls is not that of the screen. Calls follow the shape of the dose curve; as a rule, active = well fitted inhibition curve with a large enough effect; inconclusive = small, poorly fitted or top-dose-only effect; inactive = no such curve, though single readings can be large or run the other way. Potencies beside an inconclusive call are fits to weak or partial responses and may not hold up.
# Assay: qHTS for Inhibitors of TGF-b; also: nearly all actives have a fitted effect of over 65% in size
# Conditions: HepG2 CAGA-GFP TGF-b/SMAD3 reporter, GFP fluorescence, 18 h, TGF-beta stimulated, 500 pg/mL final; series mostly up to 46.1 µM
# How it was run: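 Per well, imaged GFP fluorescence of HEPG2 CAGA-GFP cells gives the signal; cells get compound, then TGF-beta (500 pg/mL final), 18 h at 37 degrees C; %Activity versus -TGF-beta and +DMSO controls.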
# Potency is read from the fitted curve at half-maximal effect; tags tell the direction and shape of the fitted curve.
row,Compound,Potency
1,O=C1NC[C@@H](c2ccccc2)OC(=O)[C@@H](Cc2ccc(F)cc2)C/C=C\C[C@@H]1CC(=O)N(CCO)Cc1ccccc1,"inconclusive: 28.2 µM [inhibitor, single point]"
2,CCc1cccc(NCc2ccccc2-c2nnc(-c3ccccc3Cl)o2)c1,inactive
3,O=C(CCSc1ccc(Cl)cc1)N1CCN(c2ccc(O)cc2)CC1,"inconclusive: 11.2 µM [inhibitor, single point]"
4,Cc1ccc(-n2c(C)cc(/C=N/NC(=O)c3ccncc3)c2C)cc1C,inactive
5,Cc1cc(C)n(Cc2ccc(C(=O)O)o2)n1,"inconclusive: 1.26 µM [inhibitor, full curve, poor fit]"
6,CCCNC(=O)c1ccc(N2CCC3(CC2)CC(c2ccccc2)=NO3)c(NC(=O)c2ccc(Br)cc2)c1,inactive
7,CC(=O)Nc1cccc(NC(=O)Nc2ccc(F)cc2F)c1,inactive
8,COc1ccc(CCNC(=O)CS(=O)Cc2nc(-c3ccc(C)cc3)oc2C)c(OC)c1 (centres undefined),inactive
9,COc1ccc(CCNC(=O)C(=O)NCC(c2ccco2)S(=O)(=O)c2ccccc2)cc1OC (centres undefined),"inconclusive: 1.26 µM [inhibitor, full curve, poor fit]"
10,COc1ccc(CCNC(=O)c2cc(-c3ccccn3)nc3c(Cl)cccc23)cc1OC,"inconclusive: 6.31 µM [inhibitor, full curve]"
11,CCCC[C@@H](CNC)NC[C@H](NCCCCC1CCCCC1)C(C)C,"inconclusive: 35.5 µM [inhibitor, single point]"
12,O=C(Cn1c(=O)nc(-c2ccccc2)c2ccccc21)NCCCc1ccccc1,"inconclusive: 3.55 µM [inhibitor, full curve, poor fit]"
13,CCc1cccc(C)c1NC(=O)CSc1nnc(N)s1,inactive
14,CCN(CC(=O)N1CCCC1)S(=O)(=O)c1cc(C)ccc1OC,inactive
15,CCOc1cc(/C=N/NC(=O)Cc2ccc(C(F)(F)F)cc2[N+](=O)[O-])c(Br)cc1OC,inactive
16,Cc1ccccc1N1CCN(S(=O)(=O)c2nnc(NC(=O)c3ccc(Cl)cc3)s2)CC1,inactive
17,Nc1c(C(=O)Nc2ccc(Br)cc2)sc2nc(-c3ccco3)ccc12,"inconclusive: 35.5 µM [inhibitor, single point]"
18,COc1ccccc1OCCCN1C(=O)C(=O)c2cccc(C)c21,"inconclusive: 15.8 µM [inhibitor, single point]"
19,CC(C)C(C)NC(=O)CSc1nnc(-c2c[nH]c3ccccc23)o1 (centres undefined),"inconclusive: 7.94 µM [inhibitor, partial curve, poor fit]"
20,O=C(NC1CC(=O)N(c2ccc(Cl)cc2)C1)c1ccc(S(=O)(=O)N2CCCC2)cc1 (centres undefined),inactive
21,CCCc1nnc(NC(=O)CC(=O)OCC)s1,"inconclusive: 35.5 µM [inhibitor, single point]"
22,Cn1c(SCc2ccc(C(C)(C)C)cc2)nnc1C1COc2ccccc2O1 (centres undefined),active: 22.4 µM
23,COc1ccc(-c2nc(NC(=O)CCNC(=O)c3ccco3)sc2C)cc1,"inconclusive: 35.5 µM [inhibitor, single point]"

row,Compound,Potency
1,NNC(=O)c1oc2nc(-c3ccccc3)cc(-c3ccco3)c2c1N,"inconclusive: 17.8 µM [inhibitor, single point]"
2,c1cc2c3c(c1)CCC[N+]3(C1CCCCC1)CCC2,inactive
3,O=C(Nc1ccc(CN2CCCCC2)cc1)c1sc2ccccc2c1Cl,inactive
4,Cc1ccc(C)c(OCC(O)CN2CCC(Cc3ccccc3)CC2)c1 (centres undefined),"inconclusive: 35.5 µM [inhibitor, single point]"
5,CCN(CC)c1ccc(NC(=O)C2COc3ccc(OC)cc3C2)c(C)c1 (centres undefined),active: 8.91 µM
6,COC(=O)/C(=C1/Oc2cc(C)oc(=O)c2S1)C(F)(F)F,active: 5.62 µM
7,O=C(COc1ccc(-c2ccccc2)cc1)N1CCN(S(=O)(=O)Cc2ccccc2)CC1,"inconclusive: 3.55 µM [inhibitor, single point]"
8,CCOC(=O)C1=C(C)NC(=O)NC1c1ccc(OC)c(Cl)c1 (centres undefined),inactive
9,CCN(CC)CCCNC(=O)c1ccc2nc(CCc3ccccc3)oc2c1,"inconclusive: 0.562 µM [inhibitor, full curve, poor fit]"
10,CC(=O)Nc1cc(-c2cccc(C(=O)N(C)C)c2)cn2c(-c3ccc(F)c(Cl)c3)cnc12,"inconclusive: 12.6 µM [inhibitor, partial curve]"
11,CCCC[C@@H](CN[C@H](C)CNC)NCC1CCC(C(C)(C)C)CC1 (some centres undefined),"inconclusive: 35.5 µM [inhibitor, single point]"
12,CCCc1cc(NC(=O)COC(=O)c2ccc(O)cc2O)n(-c2ccccc2)n1,"inconclusive: 35.5 µM [inhibitor, single point]"
13,Cc1ccc(S(=O)(=O)N2CCN(c3ccccc3)CC2)cc1C(=O)NC1CCCCC1,"inconclusive: 11.2 µM [inhibitor, partial curve, poor fit]"
14,CCOc1ccc(C=Nc2ccc(/C=C/c3ccnc4ccccc34)cc2)cc1OCC,inactive
15,CC1Sc2ccc(S(=O)(=O)CCC(=O)N3CCN(c4cccc(Cl)c4)CC3)cc2NC1=O (centres undefined),active: 15.8 µM
16,CCOC(=O)CN(C(=O)CNC(=O)c1ccco1)C(C(=O)NC1CCCCC1)c1cccc(OC)c1 (centres undefined),"inconclusive: 11.2 µM [inhibitor, partial curve, poor fit]"
17,C=C1SC(=Nc2ccccc2Cl)N(C(=O)c2sc3ccccc3c2Cl)C1(C)C,"inconclusive: 35.5 µM [inhibitor, single point]"
18,Clc1ccccc1OCc1nc(-c2ccncc2)no1,"inconclusive: 3.16 µM [inhibitor, partial curve, poor fit]"
19,Cc1nn(Cc2c(F)c(F)c(F)c(F)c2F)c(C)c1NC(=O)c1ccc(COc2ccccc2Cl)cc1,"inconclusive: 3.55 µM [inhibitor, single point]"
20,Fc1ccc(CNc2nc3ccc(Cl)cc3n3nnnc23)cc1,inactive
21,COc1cccc(-n2c(=O)c3sc4ccccc4c3n(CC(=O)Nc3cccc(Cl)c3)c2=O)c1,active: 7.94 µM
22,O=S(=O)(Nc1cccc(-c2ccc(N3CCCCC3)nn2)c1)c1ccc(Cl)s1,"inconclusive: 7.08 µM [inhibitor, full curve]"
23,CCOc1ccc(OCC(=O)Nc2c(C(=O)Nc3ccc(C)cc3)oc3ccccc23)cc1,inactive

row,Compound,Potency
1,COC(=O)c1cc(C(=O)N2CCN(c3cccc(C)c3C)CC2)cc([N+](=O)[O-])c1,inactive
2,Cc1ccc2nc(SCCCCOc3ccccc3)[nH]c2c1,"inconclusive: 35.5 µM [inhibitor, single point]"
3,Cc1c(C(=O)N(C)c2cccc(C(F)(F)F)c2)sc2nc3n(c(=O)c12)CCCCC3,inactive
4,O=C(NCCc1ccccc1Cl)C1CCN(S(=O)(=O)c2cccs2)CC1,"inconclusive: 1.26 µM [inhibitor, partial curve]"
5,CNC[C@H]1OCc2ccccc2-c2ccccc2C(=O)N([C@H](C)CO)C[C@H]1C,"inconclusive: 1 µM [inhibitor, partial curve, poor fit]"
6,CN(C)/C=C1\C(=O)Oc2ccccc2C1=O,inactive
7,CCCCCCCNC(=O)C1(CC2CC(c3ccc(Cl)cc3)=NO2)CCNCC1 (centres undefined),"inconclusive: 35.5 µM [inhibitor, single point]"
8,C=CCn1c(SCc2csc(-c3ccc(Cl)cc3)n2)nnc1-c1ccccc1OC,"inconclusive: 35.5 µM [inhibitor, single point]"
9,Cc1ccc(C)c(/C=C/C(=O)c2ccccc(=O)c2O)c1,"inconclusive: 10 µM [inhibitor, partial curve, poor fit]"
10,Cc1cccc(C)c1NC(=S)NCCSc1ccc(Cl)cc1,"inconclusive: 22.4 µM [inhibitor, single point]"
11,CCCCNc1c(-c2ccc(OC)c(SC(C)CC)c2)nc2ccc(C)cn12 (centres undefined),active: 12.6 µM
12,Cc1ccc2c(Cl)cc(Cl)c(OCC(=O)NC(C)(C)C)c2n1,"inconclusive: 14.1 µM [inhibitor, single point]"
13,COc1ccc(-c2nc3ccccc3c(=O)o2)cc1OC,"inconclusive: 28.2 µM [inhibitor, partial curve, poor fit]"
14,CCNc1nc(NCC)n2c(SCC(=O)Nc3ccccc3[N+](=O)[O-])nnc2n1,"inconclusive: 3.55 µM [inhibitor, single point]"
15,Cc1cc(C)cc(N(CC(=O)Nc2ccc(-c3nc4ccc(C)cc4s3)cc2)S(C)(=O)=O)c1,inactive
16,CCOc1ccc(CCNC(=O)c2ccc3nc(CC)c(CC)nc3c2)cc1,"inconclusive: 10 µM [inhibitor, partial curve, poor fit]"
17,CCOC(=O)C1(CCOc2ccccc2)CCN(Cc2ccc(O)c(Cl)c2)CC1,"inconclusive: 35.5 µM [inhibitor, single point]"
18,CC(=O)Nc1cc(C(=O)N2CCN(C)CC2)ccc1Sc1ccc(C)cc1,"inconclusive: 10 µM [inhibitor, partial curve]"
19,COc1ccccc1Cn1c(C)nc2ccccc21,inactive
20,Cc1ccn2c(NC3CCCCC3)c(C)nc2c1,"inconclusive: 35.5 µM [inhibitor, single point]"
21,CCCCN1CC(c2nc3ccccc3n2CCCCOc2cc(C)cc(C)c2)CC1=O (centres undefined),"inconclusive: 15.8 µM [inhibitor, single point]"
22,COc1cc2c(c(OC)c1OC)-c1c(cc3c(c1OC)OCO3)[C@@H](OC(C)=O)[C@H](C)[C@H](C)C2,"inconclusive: 0.316 µM [inhibitor, full curve, poor fit]"
23,NC(=O)c1sc(-c2ccsc2)cc1NS(=O)(=O)c1ccc(C(F)(F)F)cc1,"inconclusive: 7.94 µM [inhibitor, partial curve]"
